± gives the standard deviation of the averaged measurements. Growth of baker's yeast expressing single-residue variants of Pneumocystis jirovecii dihydrofolate reductase in 8.8 or 44 µM methotrexate (about 75% and 90% inhibition of the wild type). Selection coefficient per generation; 0 = like wild type, above 0 = less sensitive, below 0 = more sensitive or loss of function. No active / inactive call per row; the paper calls resistant above 0.220 (8.8 µM) or 0.243 (44 µM) together with a significance test. At 44 µM about 15% of codons end with one read or none, so the lowest values are floors (replicate rank correlation 0.74; 0.94 at 8.8 µM).
B1: UniProt A0EPZ9; numbered along this chain (parent)
chain: MDWQKSLTLIVALTLSRGIGLKNDLPWKLKSDMMFFSRVTSGLLVTRSTGQMNVVLMGRKTWESLPAHSRPLKNRINVVISRQEVLDLGGGAYHARSLDDALALLSQIYDSTSKIQLNRVFVIGGGELCKAAMEHSRLNRIIATVIHNEVDCDVFFPIDFRSSQSCLPWRKQDHSVLEAWVGSKVPQGKINENGFIYEFEMWIRDI

Variants of: B1
Assay: selection coefficient against synonymous wild-type codons (log2 per generation); higher = faster growth than wild type
Settings: with Saccharomyces cerevisiae carrying the variant on a plasmid
Description: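 Pooled growth of yeast carrying single-residue variants of P. jirovecii dihydrofolate reductase (own DFR1 gene intact), two passages at 30 °C, three cultures, sequenced before and after. Codons with under 15 starting reads are left out; codons of one change are averaged.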

Row | Variant | selection coefficient against synonymous wild-type codons (log2) (methotrexate 8.8 µM) | selection coefficient against synonymous wild-type codons (log2) (methotrexate 44 µM)
1 | S136M | -0.136 ± 0.017 | 0.00986 ± 0.074
2 | S136P | 0.237 ± 0.036 | 0.314 ± 0.065
3 | S136Y | -0.206 ± 0.044 | -0.251 ± 0.087
4 | S136G | -0.0383 ± 0.043 | -0.0841 ± 0.12
5 | S136L | -0.212 ± 0.063 | -0.189 ± 0.14
6 | S136I | -0.177 ± 0.037 | -0.174 ± 0.13
7 | S136N | 0.00789 ± 0.038 | 0.0153 ± 0.05
8 | S136Q | -0.0128 ± 0.021 | -0.062 ± 0.065
9 | E134T | -0.102 ± 0.035 | 0.000588 ± 0.063
10 | E134I | -0.338 ± 0.059 | -0.158 ± 0.14
11 | E134Q | 0.0173 ± 0.013 | -0.0528 ± 0.11
12 | E134F | -0.246 ± 0.023 | -0.189 ± 0.12
13 | E134W | -0.537 ± 0.022 | -0.266 ± 0.14
14 | E134C | -0.142 ± 0.022 | -0.153 ± 0.077
15 | E134D | -0.117 ± 0.027 | -0.216 ± 0.054
16 | E134S | -0.102 ± 0.037 | -0.0521 ± 0.078
17 | E134M | -0.125 ± 0.015 | -0.047 ± 0.03
18 | E134G | -0.164 ± 0.036 | -0.123 ± 0.057
19 | E134A | -0.0686 ± 0.03 | -0.0264 ± 0.14
20 | E134K | -0.0473 ± 0.013 | -0.0953 ± 0.11
21 | E134L | -0.189 ± 0.043 | -0.106 ± 0.066
22 | E134N | -0.0481 ± 0.028 | 0.0316 ± 0.094
23 | E134V | -0.219 ± 0.047 | -0.35 ± 0.1
24 | E134Y | -0.238 ± 0.036 | -0.332 ± 0.075

Row | Variant | selection coefficient against synonymous wild-type codons (log2) (methotrexate 8.8 µM) | selection coefficient against synonymous wild-type codons (log2) (methotrexate 44 µM)
25 | E134R | -0.0884 ± 0.045 | -0.129 ± 0.13
26 | R137H | -0.00178 ± 0.023 | 0.109 ± 0.032
27 | R137L | -0.101 ± 0.04 | -0.0978 ± 0.1
28 | R137C | 0.0354 ± 0.014 | 0.0709 ± 0.05
29 | R137S | 0.105 ± 0.028 | 0.195 ± 0.065
30 | R137P | -0.248 ± 0.075 | -0.225 ± 0.047
31 | R137T | -0.0588 ± 0.023 | -0.0694 ± 0.094
32 | R137I | -0.356 ± 0.11 | -0.234 ± 0.12
33 | R137G | 0.158 ± 0.043 | 0.287 ± 0.13
34 | R137E | -0.0495 ± 0.012 | 0.0238 ± 0.069
35 | R137Q | 0.077 ± 0.057 | 0.195 ± 0.12
36 | R137N | 0.1 ± 0.027 | 0.16 ± 0.015
37 | R137D | -0.11 ± 0.045 | -0.113 ± 0.11
38 | R137V | -0.289 ± 0.038 | -0.324 ± 0.17
39 | R137F | -0.167 ± 0.043 | -0.191 ± 0.18
40 | R137K | 0.0851 ± 0.011 | 0.251 ± 0.095
41 | R137Y | -0.0908 ± 0.0077 | -0.0362 ± 0.13
42 | R137W | -0.0465 ± 0.029 | 0.025 ± 0.052
43 | R137A | 0.138 ± 0.039 | 0.242 ± 0.066
44 | R137M | 0.00973 ± 0.033 | -0.0165 ± 0.12
45 | A131M | -0.19 ± 0.048 | -0.121 ± 0.068
46 | A131W | -0.404 ± 0.073 | -0.243 ± 0.14
47 | A131T | -0.11 ± 0.037 | -0.0384 ± 0.12
48 | A131Q | 0.0609 ± 0.025 | 0.0353 ± 0.092

Row | Variant | selection coefficient against synonymous wild-type codons (log2) (methotrexate 8.8 µM) | selection coefficient against synonymous wild-type codons (log2) (methotrexate 44 µM)
49 | A131H | -0.168 ± 0.008 | -0.12 ± 0.19
50 | A131I | -0.296 ± 0.066 | -0.322 ± 0.051
51 | A131P | -0.531 ± 0.16 | -0.289 ± 0.085
52 | A131E | 0.00489 ± 0.029 | -0.0607 ± 0.029
53 | A131Y | -0.338 ± 0.037 | -0.322 ± 0.099
54 | A131L | -0.294 ± 0.066 | -0.258 ± 0.09
55 | A131C | -0.29 ± 0.053 | -0.273 ± 0.16
56 | A131V | -0.226 ± 0.05 | -0.239 ± 0.12
57 | A131G | -0.519 ± 0.03 | -0.345 ± 0.12
58 | A131D | -0.183 ± 0.079 | -0.238 ± 0.088
59 | A131K | -0.154 ± 0.015 | -0.269 ± 0.16
60 | A131S | -0.113 ± 0.053 | -0.129 ± 0.17
61 | A131N | -0.202 ± 0.047 | 0.0628 ± 0.48
62 | A131R | -0.23 ± 0.055 | -0.239 ± 0.12
63 | A131F | -0.359 ± 0.053 | -0.308 ± 0.045
64 | C129P | 0.118 ± 0.022 | 0.27 ± 0.065
65 | C129F | 0.224 ± 0.031 | 0.262 ± 0.031
66 | C129M | 0.17 ± 0.025 | 0.201 ± 0.02
67 | C129Y | 0.718 ± 0.028 | 1.16 ± 0.067
68 | C129E | 0.365 ± 0.025 | 0.855 ± 0.05
69 | C129D | 0.484 ± 0.012 | 0.728 ± 0.078
70 | C129H | 0.107 ± 0.035 | 0.357 ± 0.29
71 | C129V | 0.585 ± 0.03 | 0.885 ± 0.062
72 | C129W | 0.454 ± 0.021 | 0.717 ± 0.038

Row | Variant | selection coefficient against synonymous wild-type codons (log2) (methotrexate 8.8 µM) | selection coefficient against synonymous wild-type codons (log2) (methotrexate 44 µM)
73 | C129I | 0.54 ± 0.027 | 0.776 ± 0.062
74 | C129R | -0.302 ± 0.15 | -0.00266 ± 0.17
75 | C129L | 0.401 ± 0.037 | 0.597 ± 0.15
76 | C129S | -0.043 ± 0.028 | 0.0283 ± 0.059
77 | C129A | 0.353 ± 0.028 | 0.488 ± 0.045
78 | C129T | 0.539 ± 0.04 | 0.828 ± 0.045
79 | C129G | 0.235 ± 0.022 | 0.353 ± 0.051
80 | C129N | 0.334 ± 0.024 | 0.53 ± 0.056
81 | C129Q | 0.588 ± 0.013 | 0.879 ± 0.068
82 | C129K | -0.213 ± 0.095 | -0.116 ± 0.16
83 | G126Q | 0.36 ± 0.056 | 0.519 ± 0.0094
84 | G126V | 0.529 ± 0.028 | 0.765 ± 0.051
85 | G126L | -0.204 ± 0.041 | 0.00443 ± 0.2
86 | G126K | 0.264 ± 0.031 | 0.318 ± 0.093
87 | G126W | 0.0167 ± 0.01 | -0.0189 ± 0.12
88 | G126Y | -0.0439 ± 0.096 | -0.0642 ± 0.087
89 | G126P | 0.9 ± 0.056 | 1.44 ± 0.035
90 | G126M | 0.329 ± 0.028 | 0.458 ± 0.04
91 | G126R | 0.357 ± 0.033 | 0.517 ± 0.057
92 | G126F | -0.0814 ± 0.037 | -0.12 ± 0.14
93 | G126H | 0.357 ± 0.032 | 0.517 ± 0.068
94 | G126T | 0.686 ± 0.04 | 1.06 ± 0.049
95 | G126I | 0.32 ± 0.034 | 0.72 ± 0.17
96 | G126S | 0.235 ± 0.034 | 0.383 ± 0.027

Row | Variant | selection coefficient against synonymous wild-type codons (log2) (methotrexate 8.8 µM) | selection coefficient against synonymous wild-type codons (log2) (methotrexate 44 µM)
97 | G126N | 0.438 ± 0.034 | 0.627 ± 0.077
98 | K130Q | -0.143 ± 0.0069 | -0.223 ± 0.21
99 | K130W | -0.337 ± 0.088 | -0.321 ± 0.19
100 | K130M | -0.174 ± 0.022 | -0.0879 ± 0.1
101 | K130F | -0.336 ± 0.031 | -0.29 ± 0.17
102 | K130S | -0.203 ± 0.082 | -0.0932 ± 0.16
103 | K130H | -0.233 ± 0.075 | -0.249 ± 0.13
104 | K130N | -0.176 ± 0.047 | -0.131 ± 0.077
105 | K130D | -0.338 ± 0.046 | -0.427 ± 0.04
106 | K130E | -0.213 ± 0.041 | -0.122 ± 0.16
107 | K130A | -0.173 ± 0.039 | -0.165 ± 0.15
108 | K130Y | -0.336 ± 0.13 | -0.113 ± 0.05
109 | K130I | -0.341 ± 0.026 | -0.233 ± 0.17
110 | K130G | -0.363 ± 0.05 | -0.301 ± 0.1
111 | K130L | -0.23 ± 0.05 | -0.177 ± 0.14
112 | K130V | -0.358 ± 0.014 | -0.281 ± 0.046
113 | K130R | -0.035 ± 0.034 | 0.024 ± 0.073
114 | K130C | -0.393 ± 0.094 | -0.324 ± 0.13
115 | K130P | -0.29 ± 0.17 | -0.116 ± 0.14
116 | K130T | -0.213 ± 0.044 | -0.124 ± 0.095

— the supplement of paper PMC11125491
